These results are taken from paper PMC8951588.

Results are given in words; binding and its absence hold for the method and conditions named. For some assays here: In cells and extracts the contact can be indirect. Some binding calls cover weakened binding; strength is not graded here. For some assays here: Sequences can lack the tags named with a protein.

Assay [1] addresses T1, CER1 bait (pBT3N:CER1) (UniProt F4HVY0).
T1 sequence: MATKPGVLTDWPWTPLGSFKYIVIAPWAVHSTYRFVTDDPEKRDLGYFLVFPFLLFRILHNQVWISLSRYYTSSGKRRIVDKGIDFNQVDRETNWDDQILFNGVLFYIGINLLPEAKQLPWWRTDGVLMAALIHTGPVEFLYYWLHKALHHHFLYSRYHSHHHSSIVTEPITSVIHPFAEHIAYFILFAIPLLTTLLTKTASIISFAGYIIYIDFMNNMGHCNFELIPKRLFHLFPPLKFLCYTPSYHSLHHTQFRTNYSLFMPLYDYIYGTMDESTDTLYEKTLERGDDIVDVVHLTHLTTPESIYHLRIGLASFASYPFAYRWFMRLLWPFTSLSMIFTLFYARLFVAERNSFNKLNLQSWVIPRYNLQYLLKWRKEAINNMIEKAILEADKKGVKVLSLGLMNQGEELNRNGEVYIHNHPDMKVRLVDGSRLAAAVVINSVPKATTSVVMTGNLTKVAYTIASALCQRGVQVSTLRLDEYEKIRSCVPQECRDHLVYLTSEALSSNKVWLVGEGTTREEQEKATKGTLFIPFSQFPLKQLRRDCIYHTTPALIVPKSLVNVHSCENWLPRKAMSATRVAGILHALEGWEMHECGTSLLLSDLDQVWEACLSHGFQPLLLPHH
The assay can be described thus: two-hybrid.

Assay [2] addresses T2, Cub–StREM1.3 (bait in pBT3N) (Solanum tuberosum (potato)) (UniProt P93788).
T2 sequence: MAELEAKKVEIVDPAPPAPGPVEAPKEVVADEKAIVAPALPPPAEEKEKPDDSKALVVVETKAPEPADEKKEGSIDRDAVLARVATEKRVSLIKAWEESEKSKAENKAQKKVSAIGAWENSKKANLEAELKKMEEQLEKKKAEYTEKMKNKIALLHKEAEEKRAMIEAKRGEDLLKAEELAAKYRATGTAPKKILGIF
As to the kind of experiment: two-hybrid.

Assay [3] addresses T3, cYFP–REM (StREM1.3 fused to the C-terminal half of YFP) (Solanum tuberosum (potato)) (UniProt P93788).
T3 sequence: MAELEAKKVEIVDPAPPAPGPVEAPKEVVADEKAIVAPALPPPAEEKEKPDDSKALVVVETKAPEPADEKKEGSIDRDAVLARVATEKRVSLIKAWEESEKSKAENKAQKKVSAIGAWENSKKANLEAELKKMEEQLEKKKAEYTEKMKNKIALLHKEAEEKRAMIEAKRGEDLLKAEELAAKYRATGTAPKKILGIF
The assay can be described thus: split reporter.

B1: NubG–StREM1.3 (Solanum tuberosum REMORIN group 1 homologue 3, prey in pPR3N) (protein, UniProt P93788 1-198)
chain: MAELEAKKVEIVDPAPPAPGPVEAPKEVVADEKAIVAPALPPPAEEKEKPDDSKALVVVETKAPEPADEKKEGSIDRDAVLARVATEKRVSLIKAWEESEKSKAENKAQKKVSAIGAWENSKKANLEAELKKMEEQLEKKKAEYTEKMKNKIALLHKEAEEKRAMIEAKRGEDLLKAEELAAKYRATGTAPKKILGIF
B1: the results for the binding result in assay [1] and in assay [2] were “no binding” and “binds”, respectively.

B2: nYFP–REM (StREM1.3 fused to the N-terminal half of YFP, pSITE-nEYFP-C1) (protein, UniProt P93788 1-198)
chain: MAELEAKKVEIVDPAPPAPGPVEAPKEVVADEKAIVAPALPPPAEEKEKPDDSKALVVVETKAPEPADEKKEGSIDRDAVLARVATEKRVSLIKAWEESEKSKAENKAQKKVSAIGAWENSKKANLEAELKKMEEQLEKKKAEYTEKMKNKIALLHKEAEEKRAMIEAKRGEDLLKAEELAAKYRATGTAPKKILGIF
B2: the binding result in assay [3] is recorded as “binds”.

B3: CytB5-B prey (pPR3N:CytB5-B) (protein, UniProt O48845 1-134)
chain: MGDEAKIFTLSEVSEHNQAHDCWIVINGKVYNVTKFLEDHPGGDDVLLSSTGKDATDDFEDVGHSESAREMMEQYYVGEIDPTTIPKKVKYTPPKQPHYNQDKTSEFIIKLLQFLVPLAILGLAVGIRIYTKSG
Turning to B3, the binding entry in assay [1] is “binds”; in assay [2], “no binding”.
